Data published in the supplement of paper PMC3334620.
Whole data set: some 33,000 sequences, median “E-score (-0.5 to 0.5)” near -0.056, cut for the highest 2% near 0.38. Some of the results follow.

Target: Stb4 (UniProt P50104)
Assay: PBM E-score (8-mer binding enrichment) (E-score (-0.5 to 0.5)); higher = stronger / more preferred TF binding; most listed sequences are background and not binding sites
Settings: protein concentration: 200 nM; construct: GST-DNA-binding domain
Method in brief: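 The E-score, a modified Wilcoxon-Mann-Whitney statistic, was computed by the Universal PBM Analysis Suite for every ungapped eight-base word pooled with its reverse complement. Scans behind it were normalised with masliner after bound GST-tagged yeast transcription factors were detected with fluorescent anti-GST. The proteins, at about 100-200 nM, had been applied to universal all-10-mer Agilent arrays made double-stranded by primer extension.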

Sequence	PBM E-score
AGGCAACG	-0.0947
CCTCGAAG	-0.0456
AGGTTATA	-0.0431
ATAAAGTC	-0.0705
CCGTAGTA	0.162
GGCTTCAA	-0.066
GCTGAACA	-0.0735
ATACTGAT	-0.0055
CAGGGTAC	-0.123
CAGCCGGC	0.318
AACCCGAT	0.285
AGAAGGCT	-0.272
GGGAGTGA	0.046
CTAACCAA	-0.111
CCTGACCC	0.0145
CAGCGCTA	-0.0971
TACGGTAA	0.111
CTATACTC	-0.0193
AGCCGCCC	0.0992
CTCGCGGC	0.131
AGTCGCAC	-0.174
AATTCTTG	-0.153

Sequence	PBM E-score
CGATTCCC	0.137
AGTGAGTG	-0.0801
ACAAAATA	0.0175
CCGAACAG	0.4
CGTGTAGC	-0.0116
GATGAATC	0.0471
ACTCTAAC	-0.0475
ACATCACC	0.0212
CCATAAAA	0.0242
ACAATATG	0.0625
CACTTACG	0.1
AACGCCTG	-0.214
CTTGAACC	0.019
AATATATT	0.154
GACAGCCA	-0.217
TCACAGAA	-0.117
ACTCTCCA	-0.121
ATCCCTTC	-0.183
AACGACGC	-0.274
CAACCCGC	0.149
CGCCCAAA	-0.1
CGCTGAAC	0.00896

Sequence	PBM E-score
GCCAGTGA	-0.162
CAAGCCTA	-0.239
CTTTGGAC	0.0624
ATTCTCGG	0.425
GTCACCAC	-0.103
ACCAACGA	-0.0405
CAAGGTCC	-0.0505
AGCTTTCG	0.0251
GCACAAGA	0.0127
TCCCGAGA	0.453
GCGGGCTA	-0.0737
ACGAGCAT	-0.255
CCGTACTA	0.12
GATTACTA	0.0638
AAACCCCG	0.254
CACTAGCG	-0.188
CCAGGGTA	-0.0473
CCTAGTTA	0.0148
CATCGTAG	-0.213
CCCACTCA	-0.31
GGCCATAC	0.16
ACGAGTCC	0.0129

Sequence	PBM E-score
GGACCAAA	0.0255
ACGCTTAC	-0.0744
CATATCAC	-0.0932
ATTGTAGC	0.0369
ATCTATCC	0.333
AGGTATCA	-0.232
ACGTTACG	-0.201
TATCCCAA	0.0571
ACGACACG	0.0237
AGACTTAG	-0.202
GTAACCCA	-0.0452
AGGAACAA	-0.104
ACTAAGAA	-0.0529
TATGAGGA	-0.143
AGTTCGGC	0.357
TACATTGA	-0.119
AATAGCGC	-0.154
CTGGCCCC	0.0187
CTACTGGC	-0.0912
AACACTCG	0.0221
